# Laboratory results taken from the supplement of paper PMC4604168 (melanoma cell lines).
# This is one part of the list. Repeats are few or missing, and single values can be far off.
# Legend:
# Assay in all cases: cell count relative to DMSO control; melanoma cells; higher = more viable cells
# Conditions in all cases: library dose: low library concentration; 72 h
# MeWo = tested on: MeWo
# RPMI7951 = tested on: RPMI7951
# RVH-421 = tested on: RVH-421
# SkMel28 = tested on: SkMel28
# SkMel30 = tested on: SkMel30
# SkMel5 = tested on: SkMel5
# UACC257 = tested on: UACC257
# UACC62 = tested on: UACC62
# WM115 = tested on: WM115
# WM1716 = tested on: WM1716
# 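Further: cell number obtained by counting DAPI-stained nuclei in high-throughput microscope images with image analysis software, screen run in 1,536-well plates.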
Compound,cell count (MeWo),cell count (RPMI7951),cell count (RVH-421),cell count (SkMel28),cell count (SkMel30),cell count (SkMel5),cell count (UACC257),cell count (UACC62),cell count (WM115),cell count (WM1716)
"COc1ccc(-c2ccc3c(N4CCOCC4)nc(N4C[C@@H](C)O[C@@H](C)C4)nc3n2)cc1CO + O=S(=O)(c1ccccc1)N(CC(F)(F)F)c1ccc(C(O)(C(F)(F)F)C(F)(F)F)cc1 [T0901317] (first compound 0.02 µM, partner dose 1.4 µM)",88.2%,97%,89.7%,72.2%,76.1%,79.5%,63.4%,78.5%,87.8%,85.9%
"O=S(=O)(c1ccccc1)N(CC(F)(F)F)c1ccc(C(O)(C(F)(F)F)C(F)(F)F)cc1 + O=C(O)C(=O)Nc1sc2c(c1C(=O)O)CCNC2 [TCS401] (first compound 1.4 µM, partner dose 1.66667 µM)",87.1%,119%,111%,109%,106%,107%,87.9%,96.4%,89.6%,116%
"COc1ccc2c(c1)CCC1C2CCC2(C)C(NCCCCCCN3C(=O)C=CC3=O)CCC12 (stereo not given) + Cn1cc(/C=C2\C(=O)Nc3cccnc32)c2ccccc21 [GW441756] (first compound 0.4 µM, partner dose 0.4 µM)",103%,69.7%,96.6%,97.4%,114%,96.4%,85.9%,93.1%,95%,92.8%
"Cn1cc(/C=C2\C(=O)Nc3cccnc32)c2ccccc21 + CCCCCCCCCCCC1=C(O)C(=O)C=C(O)C1=O [Embelin] (first compound 0.4 µM, partner dose 1.2 µM)",101%,109%,104%,82.7%,114%,79.2%,87.3%,98.5%,100%,129%
"N#Cc1c(O)c2c(-c3ccc(-c4ccccc4O)cc3)csc2[nH]c1=O + COc1ccc2c(c1)CCC1C2CCC2(C)C(NCCCCCCN3C(=O)C=CC3=O)CCC12 [U73122] (first compound 2 µM, partner dose 0.4 µM)",99.4%,86.9%,102%,85.8%,111%,94.7%,84.2%,92.1%,101%,95.3%
"COc1ccc2c(c1)CCC1C2CCC2(C)C(NCCCCCCN3C(=O)C=CC3=O)CCC12 (stereo not given) + COc1ccc(COc2ccc(Cc3cnc(N)nc3N)cc2OC)cc1 [GW2580] (first compound 0.4 µM, partner dose 1 µM)",80.3%,55%,108%,91.6%,99.9%,90.6%,86.8%,94.2%,98.9%,81.2%
"COc1ccc(COc2ccc(Cc3cnc(N)nc3N)cc2OC)cc1 + O=c1cc(-c2cccc3c2Sc2ccccc2S3)oc(N2CCOCC2)c1 [KU55933] (first compound 1 µM, partner dose 1 µM)",99.5%,103%,109%,79.6%,101%,102%,101%,98.3%,89.8%,92.7%
"CCN(CC)CCCCNc1ncc2cc(-c3cc(OC)cc(OC)c3)c(NC(=O)NC(C)(C)C)nc2n1 + c1cc(-c2cnn3cc(-c4ccc(OCCN5CCCCC5)cc4)cnc23)ccn1 [Dorsomorphin] (first compound 0.1 µM, partner dose 0.4 µM)",94.7%,107%,100%,94.8%,128%,125%,81.4%,100%,99.2%,97.1%
"O=C(O)C(=O)Nc1sc2c(c1C(=O)O)CCNC2 + Cn1cc(/C=C2\C(=O)Nc3cccnc32)c2ccccc21 [GW441756] (first compound 1.66667 µM, partner dose 0.4 µM)",114%,101%,90.2%,74.3%,101%,82.5%,92.6%,89.7%,106%,104%
"COC(=O)c1sccc1S(=O)(=O)Nc1ccc(Nc2ccccc2)cc1OC + COc1cc2ncnc(Nc3ccc(Oc4ccccc4)cc3)c2cc1OC [SrcI1] (first compound 1 µM, partner dose 2 µM)",95.3%,111%,126%,92.4%,105%,100%,113%,100%,108%,108%
"Oc1nc(-c2ccc(C(F)(F)F)cc2)nc2c1CSCC2 + O=c1cc(-c2cccc3c2Sc2ccccc2S3)oc(N2CCOCC2)c1 [KU55933] (first compound 2 µM, partner dose 1 µM)",93.9%,89.5%,130%,74.8%,99.1%,76.1%,72.1%,94%,93.9%,70.4%
